Experiment [1] concerns the target T1, CD127 recombinant protein (Histidine tagged, Sino ref 10975-H08H) (UniProt P16871 21-239).
T1 construct: bought; used in the CD127 sandwich ELISA; also called CD127 receptor; IL-7Ralpha; not shown: histidine tag
T1 sequence (looked up): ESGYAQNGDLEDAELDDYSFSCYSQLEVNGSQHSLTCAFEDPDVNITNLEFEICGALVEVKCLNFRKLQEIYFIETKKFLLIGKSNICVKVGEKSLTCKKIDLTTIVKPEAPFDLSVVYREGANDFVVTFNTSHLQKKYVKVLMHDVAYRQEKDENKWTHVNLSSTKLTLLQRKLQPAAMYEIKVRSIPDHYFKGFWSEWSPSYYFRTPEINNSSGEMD
The experiment is described as follows: sandwich ELISA, PD-1 immobilised, molecule preincubated with His-tagged CD127, anti-His-biotin + streptavidin-peroxidase, 450 nm. In general terms: ELISA stands for enzyme-linked immunosorbent assay.

Experiment [2] addresses T2, recombinant human PD-1 (rPD1; Sino Biologicals, reference 10377-H08H) (human, UniProt Q15116 in part).
T2 construct: bought; also called hPD1; PD-1 receptor
The experiment can be described thus: ELISA, recombinant human PD-1 immobilised, anti-human Fc-peroxidase, TMB, 450 nm.

In experiment [3] the target is T1, CD127 recombinant protein (Histidine …). The experiment can be described thus: sandwich ELISA, PD-1 immobilised, molecule preincubated with His-tagged CD127, anti-His-biotin + streptavidin-peroxidase, 450 nm. The source holds these as a separate data set.
The target in experiment [4] is T3, biotinylated recombinant human PD-1 (human, UniProt Q15116 in part, limits assumed, biotinylated (site not stated)).
T3 construct: used in solution in the PD-1/PD-L1 antagonist ELISA; also called PD-1 receptor
The experiment is described as follows: competition ELISA: PD-L1 immobilised (competitor), biotinylated PD-1 at 0.6 µg/mL premixed with the molecule.

Experiment [5] deals with T1, CD127 recombinant protein (Histidine …). The experiment can be described thus: sandwich ELISA, PD-1 immobilised, molecule preincubated with His-tagged CD127, anti-His-biotin + streptavidin-peroxidase, 450 nm. This is another data set of the same source.
Experiment [6] addresses T2, recombinant human PD-1 (rPD1; Sino …). The experiment can be described thus: ELISA: PD-1 immobilised, anti-human Fc peroxidase detection.
In experiment [7] the target is T4, CD127 (Sinobiological, 10975-H03H-50) (UniProt P16871 21-239).
T4 construct: bought; immobilised on the CM5 chip in the Biacore assays; also called CD127 receptor
T4 sequence (looked up): T1 sequence (looked up)
The experiment can be described thus: Biacore: CD127 immobilised on sensor chip, fusion at escalating doses.

Experiment [8] deals with T5, IL-7 receptor (IL-7R: CD127/CD132) on cells (human, UniProt P16871 21-459; P31785 23-369).
T5 sequence (looked up) 1: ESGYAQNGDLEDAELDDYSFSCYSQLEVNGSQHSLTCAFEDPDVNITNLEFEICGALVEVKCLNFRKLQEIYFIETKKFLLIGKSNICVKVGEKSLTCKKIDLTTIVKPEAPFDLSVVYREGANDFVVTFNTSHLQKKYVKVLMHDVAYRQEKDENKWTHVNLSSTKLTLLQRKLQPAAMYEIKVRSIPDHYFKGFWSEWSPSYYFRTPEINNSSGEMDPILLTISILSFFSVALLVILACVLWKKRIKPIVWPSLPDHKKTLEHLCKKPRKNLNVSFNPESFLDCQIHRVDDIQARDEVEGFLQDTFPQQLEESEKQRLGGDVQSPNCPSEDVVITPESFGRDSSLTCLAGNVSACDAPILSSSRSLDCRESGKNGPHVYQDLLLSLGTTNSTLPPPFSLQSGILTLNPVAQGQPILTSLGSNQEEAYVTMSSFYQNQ
T5 sequence (looked up) 2: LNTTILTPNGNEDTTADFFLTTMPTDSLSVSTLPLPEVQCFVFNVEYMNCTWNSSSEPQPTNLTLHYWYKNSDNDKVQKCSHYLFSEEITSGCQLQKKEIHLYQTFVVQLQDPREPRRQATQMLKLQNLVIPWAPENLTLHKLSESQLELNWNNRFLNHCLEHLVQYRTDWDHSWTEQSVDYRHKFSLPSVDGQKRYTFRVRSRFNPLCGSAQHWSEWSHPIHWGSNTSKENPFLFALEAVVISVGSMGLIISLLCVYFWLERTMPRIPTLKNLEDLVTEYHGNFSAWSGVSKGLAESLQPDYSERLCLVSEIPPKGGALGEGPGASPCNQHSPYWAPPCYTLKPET
The experiment is described as follows: cell-based or functional assay.

Experiment [9] deals with T6, human PD-1 and human CD127 co-expressed on cells (Jurkat, CHO or U937) (human, UniProt Q15116 25-288; P16871 21-459).
T6 construct: whole, on cells; two separate receptors on one cell, not a complex; also called PD-1+CD127+ cells; PD-1(+)CD127(+) cells
The experiment is described as follows: flow cytometry, 1:1 co-culture of CHO PD-1+CD127+ and CHO PD-1-CD127+ cells, anti IgG-PE; number printed over the pair of bars.

Experiment [10] has as its target T4, CD127 (Sinobiological, 10975-H03H-50). The experiment is described as follows: Biacore: CD127 immobilised on CM5 chip, fusion as analyte (0.35-30 nM), two-state reaction model. (In general: Surface plasmon resonance follows binding to a sensor surface in real time, without labels.)
Experiment [11] addresses T1, CD127 recombinant protein (Histidine …). The experiment can be described thus: sandwich ELISA: PD-1 immobilised, fusion preincubated with His-tagged CD127, anti-His detection.
Experiment [12] concerns the target T7, CD132 receptor (Sinobiological 10555-H08B) (UniProt P31785 23-254).
T7 construct: bought; analyte in the Biacore CD132 assay; also called common gamma chain
T7 sequence (looked up): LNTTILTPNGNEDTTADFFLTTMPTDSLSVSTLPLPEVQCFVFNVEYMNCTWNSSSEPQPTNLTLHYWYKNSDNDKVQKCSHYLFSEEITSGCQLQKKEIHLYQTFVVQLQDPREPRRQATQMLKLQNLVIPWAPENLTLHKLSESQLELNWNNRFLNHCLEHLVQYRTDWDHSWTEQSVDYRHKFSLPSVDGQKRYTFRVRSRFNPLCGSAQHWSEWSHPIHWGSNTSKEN
The experiment is described as follows: Biacore, steady-state model: CD127 immobilised, IL-7 construct injected at 30 nM, then CD132 at 31.25-500 nM (CD132 on the CD127 + fusion complex).

Like-named read-outs stand apart in the source and are kept apart here.

B1: anti PD-1 IL-7 SS2 bifunctional molecule, IgG1m isotype, (GGGGS)3 linker (other)
heavy: QIQLVQSGSELKKPGASVKVSCKASGYTFTHYAMNWVRQAPGQGLEWMGWINTNTGEPTYAQGFTGRFVFSLDTSVSTAYLQISSLKAEDTAVYYCAREREPGMDNWGQGTLVTVSS[… human IgG1 constant region with changes …]GGGGSGGGGSGGGGSDSDIEGKDGKQYESVLMVSIDQLLDSMKEIGSNCLNNEFNFFKRHISDANKEGMFLFRAARKLRQFLKMNSTGDFDLHLLKVSEGTTILLNSTGQVKGRKPAALGEAQPTKSLEENKSLKEQKKLNDLCFLKRLLQEIKTSWNKILMGTKEH
light: DVVMTQSPLSLPVTLGQPASISCRSSQSLVHANTNTYLEWYQQRPGQSPRLLIYKVSNRFSGVPDRFSGSGSGTDFTLKISRVEAEDVGVYYCFQGTHVPNTFGQGTKLEIKRTVAAPSVFIFPPSDEQLKSGTASVVCLLNNFYPREAKVQWKVDNALQSGNSQESVTEQDSKDSTYSLSSTLTLSKADYEKHKVYACEVTHQGLSSPVTKSFNRGEC
notes: as m24 with IL-7 SS2; also called anti PD-1 IL-7 SS2 bifunctional molecule with an IgG1m
As to B1, the binding result in experiment [1] is given as “binds”. Further, the EC50 (read off the curve) (usually the concentration needed to bring the measured effect to its halfway point) in experiment [2] was around 0.005 µg/mL.

B2: anti PD-1 IL-7 W142H bifunctional molecule, IgG1m isotype, (GGGGS)3 linker (construction 1 as used in Example 8) (other)
heavy: QIQLVQSGSELKKPGASVKVSCKASGYTFTHYAMNWVRQAPGQGLEWMGWINTNTGEPTYAQGFTGRFVFSLDTSVSTAYLQISSLKAEDTAVYYCAREREPGMDNWGQGTLVTVSS[… human IgG1 constant region with changes …]GGGGSGGGGSGGGGSDCDIEGKDGKQYESVLMVSIDQLLDSMKEIGSNCLNNEFNFFKRHICDANKEGMFLFRAARKLRQFLKMNSTGDFDLHLLKVSEGTTILLNCTGQVKGRKPAALGEAQPTKSLEENKSLKEQKKLNDLCFLKRLLQEIKTCHNKILMGTKEH
light: B1 light
notes: two anti PD-1 arms and two IL-7 W142H; also called anti PD-1*2 IL-7 W142H*2; anti-PD-1*2 IL7 W142H*2
On to B2, for which the “EC50 (read off the curve)” value was around 0.05 µg/mL in [3] and around 0.07 µg/mL in experiment [5]. Also, the EC50 – broadly, the concentration at which the effect is half-maximal – in experiment [4] came to 2.79 nM; in [6] it was 0.034 nM. Moreover, binding in experiment [7] was characterised by a dissociation constant (Kd) of 37.3 nM.

B3: anti PD-1 IL-7 SS2 bifunctional molecule, IgG4m isotype, (GGGGS)3 linker (other)
heavy: QIQLVQSGSELKKPGASVKVSCKASGYTFTHYAMNWVRQAPGQGLEWMGWINTNTGEPTYAQGFTGRFVFSLDTSVSTAYLQISSLKAEDTAVYYCAREREPGMDNWGQGTLVTVSSASTKGPSVFPLAPCSRSTSESTAALGCLVKDYFPEPVTVSWNSGALTSGVHTFPAVLQSSGLYSLSSVVTVPSSSLGTKTYTCNVDHKPSNTKVDKRV[… human IgG4 Fc with S228P L445P (EU numbers) …]GGGGSGGGGSGGGGSDSDIEGKDGKQYESVLMVSIDQLLDSMKEIGSNCLNNEFNFFKRHISDANKEGMFLFRAARKLRQFLKMNSTGDFDLHLLKVSEGTTILLNSTGQVKGRKPAALGEAQPTKSLEENKSLKEQKKLNDLCFLKRLLQEIKTSWNKILMGTKEH
light: B1 light
notes: as m11 with IL-7 SS2; also called IgG4 G4S3 IL7 SS2; IgG4 Fc G4S3 Fc IL-7 SS2
B3: the “pSTAT5 EC50 in CD3 T cells of human PBMCs (second experiment, other donor)” value in [8] stood at 2400 ng/mL. Moreover, in [9], the “fold difference of the binding EC50, PD1-CD127+ cells over PD1+CD127+ cells” value turned out to be 33 fold. The concentration giving a half-maximal response (EC50 (read off the curve)) in experiment [2] was around 0.006 µg/mL. Moreover, in [10], the equilibrium dissociation constant (Kd) (commonly the constant that tells how readily two partners part at equilibrium) came out at 7.22 nM, the “Kd2” value came to 0.00155 s⁻¹ and the kon (commonly the second-order rate constant of association) stood at 611000 M⁻¹ s⁻¹.

B4: anti PD-1 IL-7 W142H bifunctional molecule, IgG4m isotype, (GGGGS)3 linker (other)
heavy: QIQLVQSGSELKKPGASVKVSCKASGYTFTHYAMNWVRQAPGQGLEWMGWINTNTGEPTYAQGFTGRFVFSLDTSVSTAYLQISSLKAEDTAVYYCAREREPGMDNWGQGTLVTVSSASTKGPSVFPLAPCSRSTSESTAALGCLVKDYFPEPVTVSWNSGALTSGVHTFPAVLQSSGLYSLSSVVTVPSSSLGTKTYTCNVDHKPSNTKVDKRV[… human IgG4 Fc with S228P L445P (EU numbers) …]GGGGSGGGGSGGGGSDCDIEGKDGKQYESVLMVSIDQLLDSMKEIGSNCLNNEFNFFKRHICDANKEGMFLFRAARKLRQFLKMNSTGDFDLHLLKVSEGTTILLNCTGQVKGRKPAALGEAQPTKSLEENKSLKEQKKLNDLCFLKRLLQEIKTCHNKILMGTKEH
light: B1 light
notes: as m11 with IL-7 W142H; also called IgG4 G4S3 IL7 W142H; IgG4 Fc G4S3 IL-7 W142H
As to B4, the “pSTAT5 EC50 in CD3 T cells of human PBMCs” value in [8] was 861 ng/mL. In [11], the concentration for a half-maximal effect (EC50) is 0.136 µg/mL. Besides, in [10], the Kd is 56.8 nM, the “Kd2” value stood at 0.00256 s⁻¹ and the kon turned out to be 502000 M⁻¹ s⁻¹. Moreover, the dissociation constant Kd in experiment [12] amounted to 572 nM.

The values are drawn from patent US20230303648A1 (OSE IMMUNOTHERAPEUTICS, published 2023).
